Assay results reported in the supplement of paper PMC10126150.
Values marked as one replicate rest on one cluster of the flow cell; about a third of the high ones do not repeat.

System: ATP
Assay: switch fluorescence ratio, 500 uM ATP over buffer (Cy3 cluster intensity, sum of 5 cycles each) (fold (ratio)); higher = stronger signal-on switching upon ATP binding; sequences stand for … in TCGTCGGCAGCGTCAGATGTGTATAAGAGACAGTTTTTTTTTTTTTTTTTTTTTTTTT…TC
Conditions: aptamer strand: ATP DNA aptamer (quencher-CACCTGGGGGAGTATTGCGGAGGAAGG + anchor), 100 nM annealed; ATP concentration: 500 uM; one replicate
Outline: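 Between each of five buffer/ATP cycles, the flow-cell was stripped with NaOH and re-annealed. Each cycle imaged Cy3-labelled switching-strand clusters, annealed to 100 nM quencher-labelled ATP aptamer on a modified Illumina MiSeq flow-cell, first in selection buffer and then after 15 min with 500 uM ATP at 22 °C. The fluorescence ratio is summed target-cycle over summed buffer-cycle Cy3 intensity per cluster, averaged per switch-domain sequence, with clusters outside 100-1000 RFU excluded.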
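Note: ATP exposure 15 min at 22 °C before imaging.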

Row | Sequence | switch fluorescence ratio
1 | GGGGAAGCTA | 0.965
2 | ACTTGCCAG | 0.953
3 | GTACATTT | 1
4 | CAAATAGAGC | 1
5 | AGGACAGCTT | 1.01
6 | TTTGTTCGT | 1.02
7 | TCCGGCTCTC | 1.1
8 | CGTTTAATCT | 0.984
9 | TAAAGGAGAC | 0.979
10 | CCTGGTCGCA | 1.06
11 | GCTAAGCCTA | 0.988
12 | TTAGGCTGAA | 1.02
13 | TTAAAGCGCA | 1
14 | CTAACTAACG | 1.26
15 | GTCGGTTCGT | 1.01
16 | GAGGGTCATG | 1.04
17 | GAGCTCCCA | 1.07
18 | ACTCTCCAG | 1.25
19 | GTATGTGGGA | 0.981
20 | CCAGTGGTGA | 1.06
21 | GATGGTACGT | 1.03
22 | TAACATGGGG | 1
23 | GGTGGTGTCA | 1.01
24 | TACTGCAGTC | 0.973
25 | GTTCATACAA | 1
26 | GGATCAGGAA | 0.991

Row | Sequence | switch fluorescence ratio
27 | ACTCCTTACT | 1.47
28 | TTATACCCAT | 0.998
29 | TCTAAATACG | 1.13
30 | GTGCTCGGAG | 0.965
31 | GCCGTGGTGG | 0.996
32 | TTACTGTAGA | 1
33 | AGGTGAGGCT | 1.02
34 | TCAGGGGAT | 1.43
35 | ATGCAAGAAA | 0.976
36 | GGGTCGAATT | 1.02
37 | TATAATGCGT | 0.96
38 | AGAGGAACCG | 0.984
39 | TAATTGTATT | 0.993
40 | GGGTTAAGCG | 0.98
41 | ATCACGAGAA | 1.06
42 | CAGGAGTCGC | 1.06
43 | TTAGTATGGT | 1.02
44 | TGACTGGATG | 1.03
45 | CGCGTTTTCT | 1.03
46 | GTGAAACGG | 0.991
47 | TAGGAGATAA | 1.04
48 | TTGAGGTCT | 1.12
49 | ATTATAGTGC | 1
50 | ATTCTTGGAA | 1
51 | TAGTTTGAGA | 1.01
52 | TTTATCGCAC | 1.23

Row | Sequence | switch fluorescence ratio
53 | ACTTGCGCAA | 2.59
54 | TCTGTATATC | 1.03
55 | CGGCGGCTGC | 0.99
56 | TTGTAGTGTG | 0.973
57 | GAGACGTAAC | 1.12
58 | TTCCTCCTA | 1.86
59 | TGGTGAGGTC | 0.994
60 | GTGAATGG | 1.02
61 | TTGCTCCGGT | 1.01
62 | CAAAGTCTTA | 0.985
63 | TTCGTCGGA | 1.03
64 | GCTTACTGGG | 1.04
65 | GGTTAATAGC | 0.968
66 | GGATAATAAT | 1.02
67 | TTCATGCGAA | 1.19
68 | CAGCGGTAAC | 1.61
69 | GATGAACTGG | 0.96
70 | AGCGCTCAGA | 1
71 | TTAACGGTTG | 0.949
72 | CGTCTCGTCG | 0.956
73 | CAGGCCACAA | 1.05
74 | CGGCGGTCGT | 1.04
75 | CCTAAATAGG | 1
76 | GTAAGGTGAT | 1.1
77 | GGGAAGCGAG | 0.95
78 | ATGGACCTCA | 1.02

Row | Sequence | switch fluorescence ratio
79 | ACCTTCTGTG | 1.56
80 | AGAGATACA | 1.02
81 | GATATCTCTG | 1.03
82 | TGGGTCAGAA | 0.958
83 | TAGGGTGAT | 1.08
84 | ACAGCACCTA | 1.28
85 | CAAGATGCTG | 0.99
86 | TTCACGAAAA | 1.15
87 | CCGATTTACT | 1.55
88 | ATATAGAGAT | 1.03
89 | ACACGTTGA | 1
90 | ATTCTTTGTC | 0.985
91 | GCTTTTTACG | 0.993
92 | CATTTTACGT | 1.03
93 | TTTGAGAATG | 0.976
94 | CTTGAGAGCT | 0.962
95 | AACTAGACCA | 1.03
96 | GTCACACATT | 1.03
97 | ACCTACGAAT | 1.42
98 | TATGAAACTT | 1.02
99 | CAGTGTCGTG | 0.98
100 | TGGTATGAG | 1.01
101 | AGCGAACCCT | 1.12
102 | GGCACATGTG | 1.09
103 | TCCAATTACT | 1.12
104 | GAGTAGTGGT | 0.978

Row | Sequence | switch fluorescence ratio
105 | TTTAAGTGC | 1.07
106 | GCCATAACAG | 0.957
107 | GAAGCCCATT | 0.997
108 | TCAGCAGTTG | 0.949
109 | TAATGTGACT | 0.971
110 | GAGAAGTAAA | 0.984
111 | GGGAAAGAAA | 0.981
112 | CGTTTAGAGC | 1.02
113 | GATTCTATTA | 1.01
114 | GCGGCGTCGG | 0.973
115 | GGGAGCGTG | 0.789
116 | GCTGGTCTAT | 1.01
117 | ACGTATCTTA | 1.1
118 | TATTGAACGT | 1.02
119 | GGGACTACGT | 0.978
120 | AGCTTCATTT | 0.997
121 | ACAGTATGTT | 1.05
122 | CTATGCGTAG | 1.05
123 | CAAAGGACGT | 0.95
124 | AGGCGTTCAC | 1.07
125 | AATGTAGGCC | 1.01
126 | GAACTTTCGG | 0.997
127 | TAATGTTGGA | 0.998
128 | ATCTAACCGT | 0.977
129 | GGAATCACGA | 1.02
130 | TCGGGCTTTA | 0.939

Row | Sequence | switch fluorescence ratio
131 | TCACCAGATA | 1.02
132 | TTACACTTAC | 1.43
133 | TTGTAAATCC | 1.09
134 | AACCAGTTGT | 0.999
135 | CGGTGGCGGC | 0.99
136 | TTTGCTGGA | 0.999
137 | ATGATGATA | 1
138 | GCCTCTAGGT | 0.974
139 | GCCGTGACGA | 1.01
140 | GTTCGGTGCT | 0.992
141 | CCGTGCTTGA | 1.01
142 | GCGCAGCCGC | 0.97
143 | GCGAAGTTTC | 1.01
144 | CATCTCCGAC | 1.83
145 | CATCAGGTAC | 1.39
146 | CAGCCGTCTC | 0.97
147 | TCAGTTTCGA | 1.04
148 | AGTACCAAAT | 1.03
149 | GGAACTTGAG | 1.02
150 | GCATACACTG | 1.12
151 | GGTCGGCCTA | 1.1
152 | TTTTCAGCGA | 1.11
153 | ACGGGTATCC | 1.05
154 | CACGAGTTTT | 0.945
155 | TTCCCATTCG | 1.02
156 | CACTGGATGA | 0.983

Row | Sequence | switch fluorescence ratio
157 | ACTTAGTTGG | 0.978
158 | TCCGTGTGC | 1.54
159 | CAGGGATTA | 1.04
160 | TGATGCGATG | 1.03
161 | CCAAGCCTAG | 1.07
162 | ACGTGACGAG | 0.98
163 | TGGTAGTA | 0.997
164 | AGGGAGACAG | 0.987
165 | CTGCGGCGAC | 1.44
166 | GCAGACAGGT | 0.998
167 | AATCCCCACA | 1.03
168 | AGCTACGCGT | 1.01
169 | GGATAGGAGG | 0.984
170 | AGCGTGCACT | 0.956
171 | TGGGGATGCC | 1.02
172 | AGGCACGCGG | 1.02
173 | AAGCCAGATA | 0.969
174 | AGAAACGCGA | 1.06
175 | GGGGCATCAG | 1.05
176 | TTTGGGATAT | 1.02
177 | CTGGGAAGCG | 0.986
178 | TCCAGACCAG | 0.968
179 | TTGAGTCCCT | 1.04
180 | CGGCGTCTTT | 0.989
181 | GAGTTAGCC | 1.06
182 | AAAAATGG | 1.01

Row | Sequence | switch fluorescence ratio
183 | CTGCTACCGT | 1.05
184 | TATCTATGCA | 1.02
185 | CCGAAGATGG | 1.37
186 | TCGGTAATTG | 1.01
187 | TTCTCGAACG | 1
188 | GAAGTCATGC | 1.27
189 | CCCTGTACAC | 1.33
190 | CATGTTTGGA | 0.996
191 | CCATCAGCGA | 2.34
192 | GGAGAAGGTA | 1
193 | TATGTCACTT | 1.04
194 | TTACTCCGAA | 2.26
195 | TTATTTATAG | 0.973
196 | ATGCACTCGT | 0.987
197 | TCCGCTTATG | 1.59
198 | AACGGTTGAA | 1
199 | TACCGGTTGG | 0.985
200 | GATGACGGTT | 0.971
201 | TTGAGGGCGC | 0.953
